Measurements as given in ChEMBL document CHEMBL1201862, “PubChem BioAssay data set” (2004).

system: NCI-H322M; assay: DTP human tumour cell line panel, 48 h

Row | Compound | GI50
1 | CN1CCc2[nH]nc(-c3n[nH]c4c3CN(C)CC4)c2C1 | inactive: > 100 µM
2 | CC(C)(C)C1=CC(=C2C(=O)C(=O)c3ccccc3C2=O)C=C(C(C)(C)C)C1=O | inactive: > 100 µM
3 | COC(=O)CC(C(C(=O)OCc1ccccc1)C(C)O)N1C(=O)OCC1c1ccccc1 (stereo not drawn) | inactive: > 100 µM
4 | Nc1ccc2nc(NCc3ccc(F)cc3)cnc2c1 | inactive: > 100 µM
5 | COc1cc2c(cc1OC)C1c3ccccc3CCCN1CC2 (stereo not drawn) | inactive: > 100 µM
6 | Cc1cc2c(cc1C)C(=O)C1(C2)Cc2c(C)ccc(C)c2C1=O (stereo not drawn) | inactive: > 100 µM
7 | NC(=O)C1(c2ccccc2)Nc2ccccc2S1 (stereo not drawn) | inactive: > 100 µM
8 | Cc1c(C)c(S(=O)(=O)N(CCCN)OCCCN)c(C)c2c1OC(C)(C)C2 | inactive: 52.8 µM
9 | Cc1cc(C)c(C(=O)/C(=C/c2ccccc2)c2ccccc2)c(C)c1 | inactive: > 100 µM
10 | Cc1nc2nnnn2c2c1C(=O)Nc1ccccc1N2 | inactive: > 100 µM
11 | C[C@]12CC/C(=N\O)C=C1CC[C@@H]1C2CC[C@@]2(C)C1CC[C@@H]2OC1CCCCO1 (stereo partly drawn) | inactive: > 100 µM
12 | c1ccc2/c3[nH]/c(c2c1)=N\c1ccc(cc1)-c1nc2cc(ccc2o1)/N=c1/[nH]/c(c2ccccc12)=N/c1ccc2nc(oc2c1)-c1ccc(cc1)\N=3 | inactive: > 100 µM
13 | CCOC(=O)CCC(NC(=O)c1ccc(OCc2nc3cc(C(F)(F)F)ccc3nc2-c2ccccc2)cc1)C(=O)OCC (stereo not drawn) | inactive: > 100 µM
14 | NC(=O)N/N=C\CC(O)(C(F)(F)Cl)C(F)(F)Cl | inactive: > 10 µM
15 | COC(=O)C12OC3CO[Si](C(C)C)(C(C)C)O[Si](C(C)C)(C(C)C)OC3C1Oc1nc(=O)ccn12 (stereo not drawn) | inactive: 16.7 µM
16 | CCC1(OC(=O)CN2CCN(CCO)CC2)C(=O)OCc2c1cc1n(c2=O)Cc2cc3ccccc3nc2-1 (stereo not drawn) | active: 0.962 µM
17 | N#Cc1ccc(Oc2nc3ccccc3nc2-c2ccccc2)cc1 | inactive: > 100 µM
18 | N[C@H](COCc1ccccc1)c1ccccc1 | inactive: 31 µM
19 | Cc1ccc(S(=O)(=O)c2ccsc2NC(=O)C(F)(F)F)cc1 | inactive: 37.9 µM
20 | COc1ccc(CCn2ccc(C)n2)c(OC)c1 | inactive: > 100 µM
21 | O=C(NNC(=S)Nc1ccc(Cl)cc1)c1cc(-c2ccccc2)nc2ccccc12 | inactive: 5.93 µM
22 | S=P(N1CC1)(N1CC1)N1CC1 [THIOTEPA] | inactive: 238 µM
23 | CC1(C)O[C@@H](CP(c2ccccc2)c2ccccc2)[C@H](CP(c2ccccc2)c2ccccc2)O1 | inactive: 12.2 µM
24 | CSC[C@H](NC(=O)COc1cccc2cnccc12)C(=O)NC(Cc1ccccc1)C(O)C(=O)N1CSC[C@H]1C(=O)NC(C)(C)C (stereo partly drawn) | inactive: 75.3 µM

Row | Compound | GI50
25 | O=C1/C(=C/c2ccc3c(c2)OCO3)Sc2scc(-c3ccc(O)c(O)c3)[n+]21 | inactive: 13.2 µM
26 | CN(C)c1cccc2c1C(=O)C=CC21CCc2ccc(N(C)C)c3c(N(C)C)ccc1c23 (stereo not drawn) | inactive: 16.6 µM
27 | Cc1cc(O)ccc1C1(c2ccc(F)cc2)OC(=O)c2ccccc21 (stereo not drawn) | inactive: 2.54 µM
28 | CC(C)C(NC(=O)OC(C)(C)C)C(=O)N(C)C(Cc1ccccc1)C(=O)N(C)C(C(=O)OCc1ccccc1)C(C)C (stereo not drawn) (Boc-Val-[NMeF]-[NMeV]-OBn; configuration not given here) | inactive: > 100 µM
29 | COc1ccc2nc3cc(Cl)ccc3c(Sc3ccc([N+](=O)[O-])cc3C)c2c1 | inactive: > 100 µM
30 | O=c1oc2ccccc2c(Nc2ccc3c(c2)S(=O)(=O)c2ccccc2O3)c1[N+](=O)[O-] | inactive: 34.9 µM
31 | CC(=O)c1cnc2oc3ccc(O)cc3c2c1-c1ccccc1 | inactive: 34.3 µM
32 | NNC(=O)N/N=C1\CNC(=O)C(=O)C1c1nc2ccccc2s1 (stereo not drawn) | inactive: > 100 µM
33 | C=C(CN(C)C)C(=O)c1ccccc1C | inactive: > 100 µM
34 | Cc1ccccc1C(CCCO)C(=O)O (stereo not drawn) | inactive: > 100 µM
35 | Cc1cc(NC(=O)NC(=O)c2ccccc2N)ccc1Oc1ncc(Br)cn1 | active: 0.0255 µM
36 | c1ccc(CN2CCC(=NN3CCCCC3)CC2)cc1 | inactive: > 100 µM
37 | CC1(O)C(=O)OC2CC([C@]3(O)CCC4[C@@H]5C[C@H]6O[C@]67[C@@H](O)C=CC(=O)[C@]7(C)C5CC[C@@]43C)C1(C)C2 (stereo partly drawn) | inactive: 50.6 µM
38 | COC(=O)c1cc(NC(=O)c2cc(NC(=O)c3cc([N+](=O)[O-])cn3C)cn2C)cn1C | inactive: 54.7 µM
39 | C#C[C@]1(O)CC[C@H]2[C@@H]3CCc4cc(O)ccc4[C@H]3CC[C@@]21C [ETHINYL ESTRADIOL] | inactive: 90.2 µM
40 | CC1=C(C2=C(C)C(=O)c3c(c(C=O)c(O)c(O)c3C(C)C)C2=O)C(=O)c2c(C=O)c(O)c(O)c(C(C)C)c2C1=O [GOSSYPOLONE] | inactive: 2.23 µM
41 | COC(=O)/C(C)=N/N=C(\S)SC | inactive: 70.1 µM
42 | COc1ccc(CC/N=C2\OCc3ccccc32)cc1OC | inactive: 61.9 µM
43 | CCCCCCCCCCCCCCCCCCNc1ccn(C2OC(CO)C(OP(=O)(O)OCC(O)COP(=O)(O)OCC3OC(n4cc(F)c(NCCCCCCCCCCCCCCCCCC)nc4=O)CC3O)C2O)c(=O)n1 (stereo not drawn) | inactive: > 50 µM
44 | Cc1c(Cl)cccc1N1C(=O)C(Cl)=C(Cl)C1=O | inactive: > 100 µM
45 | CCOC(=O)C1(Cc2ccccc2)Cc2cc3c(cc2C1=O)CCC3 (stereo not drawn) | inactive: > 100 µM
46 | Oc1cc(Cl)ncn1 | inactive: > 100 µM
47 | CCN(CC)CCNc1ccc2nnn3c4ccc([N+](=O)[O-])cc4c(=O)c1c23 | inactive: 5.26 µM
48 | COc1cc(C[C@H]2c3cc(OC)c(OC)cc3CCN2C)c(Oc2cc3c(cc2OC)-c2c(OC)c(OC)cc4c2[C@H](C3)N(C)CC4)cc1OC [THALICARPINE] | inactive: 8.39 µM

Row | Compound | GI50
49 | O=CN1CCN(C(=O)c2ccc(Cl)cc2Cl)C1=S | inactive: > 100 µM
50 | O=C(CCN1CCCCC1)Nc1ccc2c(c1)C(=O)c1ccc(NC(=O)CCN3CCCCC3)cc1C2=O | inactive: 5 µM
51 | Cc1ccc(S(=O)(=O)ON=C2CC(c3ccccc3)N(C)C(c3ccccc3)C2)cc1 (stereo not drawn) | inactive: 21.7 µM and inactive: 22.4 µM
52 | CC(C)=CCc1c(O)c(CC2=C(O)C(CC=C(C)C)(C(=O)C(C)C)C(O)=C(C)C2=O)c(O)c(C(=O)C(C)C)c1O (stereo not drawn) | inactive: 8.13 µM
53 | O=c1cccccc1NCCCCCCCCNc1cccccc1=O | inactive: > 100 µM
54 | CC(=O)NC1C(O)CC(OCCCSCCN)(C(=O)O)OC1C(O)C(O)CO (stereo not drawn) | inactive: > 100 µM
55 | CCOC(=O)c1c(N2CCCC2)[nH]c(=O)c(C(c2cccs2)c2c(O)c(C(=O)OCC)c(N3CCCC3)[nH]c2=O)c1O | inactive: > 100 µM
56 | O=C(Nc1ccc(F)cc1)C(=O)C(C1OC(=O)c2ccccc21)[N+](=O)[O-] (stereo not drawn) | inactive: > 100 µM
57 | COc1ccc2nc3c(c(NCCCN(C)C)c2c1)CCCC3 | inactive: 14.3 µM
58 | N#CCCC1(CCC#N)CCCCCCCCC(CCC#N)(CCC#N)C(O)C1O (stereo not drawn) | inactive: > 100 µM
59 | NC(=O)C(c1ccccc1)N1CCOCC1 (stereo not drawn) | inactive: > 100 µM
60 | CCOC(=O)c1cn(CC)c(=O)n2c1nc1ccccc12 | inactive: > 100 µM
61 | COc1cc2c(cc1O)C(C)Cc1cc3c(cc1N(C)CC2)OCO3 (stereo not drawn) | inactive: 7.26 µM
62 | N#CC(C#N)=Cc1ccc(Oc2ccccc2)cc1 | inactive: > 91.4 µM
63 | COc1ccc2c([nH]c3cc(O)c(C)cc32)c1C=O | inactive: > 25 µM
64 | COCOC1C=CCCCC2=CC(C)=C(CC1)O2 (stereo not drawn) | inactive: > 100 µM
65 | CC1CN(C)c2ccccc2N=C1NN (stereo not drawn) | inactive: > 100 µM
66 | Oc1cc(-c2ccc(Cl)cc2)nc2ncccc12 | inactive: 67.3 µM
67 | O=C1OC(c2ccccc2)=N/C1=C/C=C/c1ccco1 | inactive: > 100 µM
68 | NC(=O)C(=O)n1ncc(Cl)c(Cl)c1=O | inactive: 40.6 µM
69 | Cc1ccc(-c2nc3ccccc3c(=O)n2NC2OC(CO)C(O)C(O)C2O)cc1 (stereo not drawn) | inactive: > 100 µM
70 | COc1cc(NC(C)CCCN)c2nccc(C)c2c1 (stereo not drawn) | inactive: 18.5 µM
71 | CCO/N=C(/CC)c1ccc(Br)s1 | inactive: > 100 µM
72 | CC1=C(O)C(O)=C(C2=C(O)C(O)=C(C)C(=O)C2=O)C(=O)C1=O | inactive: 47.9 µM

Row | Compound | GI50
73 | CC1(O)CCC2(C#N)CCC1C2O (stereo not drawn) | inactive: > 100 µM
74 | COc1ccc(CNc2nc3ccccc3nc2C(=O)O)cc1 | inactive: 27.8 µM
75 | Cc1c(Cl)c(C)c(Cl)c(O)c1Cl | inactive: 50.6 µM
76 | CC1(C)C=N[N+]2(C)C3C=CC(CC3)C12 (stereo not drawn) | inactive: > 10 µM
77 | CC(C)Nc1[nH]c(C(=O)c2ccccc2)c(N)c1C(=S)Nc1ccccc1 | inactive: 50.2 µM
78 | COc1ccccc1/C=C1\CCC(CN2CCOCC2)C1=O (stereo not drawn) | inactive: 18.4 µM
79 | O=C(c1ccccc1)C(c1ccccc1)C1(O)C(=O)Nc2ccccc21 (stereo not drawn) | inactive: > 100 µM
80 | O=C(CCc1nnc(S)[nH]1)Nc1cc(Cl)c(Cl)cc1Cl | inactive: > 100 µM
81 | CSc1cccc(-n2c3nc(=O)n(C)c(=O)c-3nc3ccccc32)c1 | inactive: 11 µM
82 | N#CCc1ccccc1/C(C#N)=C1/OC(=N)C(c2ccccc2CC#N)C1=O (stereo not drawn) | inactive: > 100 µM
83 | COC1C(N(C)C)=C(c2ccccc2)C(=O)N2CCc3ccccc3C12 (stereo not drawn) | inactive: > 100 µM
84 | COc1c(Cl)c(Cl)c(OC)c2c1C(=O)C=CC2=O | inactive: 33.7 µM
85 | COc1cc(OC)c(C2(c3c(OC(C)C)c(=O)c3=O)SCCCS2)cc1OC | inactive: > 100 µM
86 | O=S1OC[C@H](CCCl)O1 (stereo partly drawn) | inactive: > 100 µM
87 | COCn1c(C)c(C)c2c(=O)oc(N(C)C)nc21 | inactive: > 100 µM
88 | O=C(N/N=C(\c1ccccc1)c1ccccn1)NC1CCCCC1 | inactive: 31.2 µM
89 | CCCCN1CCC(O)(c2cc(C(=O)O)[nH]c2-c2cc(C)no2)C1=O (stereo not drawn) | inactive: > 100 µM
90 | Cc1ccc2nc3c(C)cc(=O)cc-3sc2c1 | inactive: 37.1 µM
91 | CCOP1(=O)OCC2OC(n3cnc4c(N)ncnc43)C(O)C2O1.c1ccccc1 (stereo not drawn) | inactive: > 100 µM
92 | CC[C@@]1(O)C[C@H](OC2CC(N(C)C)C(O)C(C)O2)c2c(O)c3c(c(O)c2[C@H]1OC1CC(N(C)C)C(O)C(C)O1)C(=O)c1cccc(O)c1C3=O (stereo partly drawn) | active: 0.0412 µM
93 | CSc1ccc(/C=C2/C[N+](C)(C)C/C(=C/c3ccc(SC)cc3)C2=O)cc1 | inactive: 38.9 µM

Several values for one entry are separate records, joined by “and”; a condition that tells them apart may be missing. Equal values may be shown once.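 Assay format: 96-well plates, 48-hour exposure. At the GI50, growth is halved.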 Activity calls are given as the source filed them. No stated cut-off is given here; in the data, active = GI50 up to about 1.1 µM and inactive = higher. Square brackets hold non-standard residues; d marks the D form. Peptide text beside a SMILES is read from it. * marks the point of attachment. NMeF = CN[CH](Cc1ccccc1)C(=O)O; NMeV = CN[CH](C(=O)O)C(C)C; Boc = CC(C)(C)OC(=O)*; OBn = c1ccc(CO*)cc1
